Measurements: the supplement of paper PMC8728848
The list shows a part of the results.

What was measured:
Assay in all cases: glycan array binding signal (z-score within array); higher = stronger binding
Settings in all cases: glycan notation: IUPAC condensed, linker removed
[1] = molecular target: Neu5Ac(a2-6)Gal(b1-4)GlcNAc(b1-2)Man(a1-3)Man(b1-4)GlcNAc(b1-4)GlcNAc
Summary of the method: (§1)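 From the Consortium for Functional Glycomics database, 3228 arrays were curated, keeping only those whose protein sequence was available. Binding is given as a within-array Z-score averaged across arrays sharing a protein sequence and across linkers. Negative Z-scores can be read as non-binding.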

[2] = molecular target: Neu5Ac(a2-6)Gal(b1-4)GlcNAc(b1-2)Man(a1-3)[Gal(b1-4)GlcNAc(b1-2)Man(a1-6)]Man(b1-4)GlcNAc(b1-4)GlcNAc
Summary of the method: as §1

[3] = molecular target: Neu5Ac(a2-6)Gal(b1-4)GlcNAc(b1-2)Man(a1-3)[GlcNAc(b1-2)Man(a1-6)]Man(b1-4)GlcNAc(b1-4)GlcNAc
Summary of the method: as §1

[4] = molecular target: Neu5Ac(a2-6)Gal(b1-4)GlcNAc(b1-2)Man(a1-3)[GlcNAc(b1-2)Man(b1-4)GlcNAc(b1-2)Man(a1-6)]Man(b1-4)GlcNAc(b1-4)GlcNAc
Summary of the method: as §1

[5] = molecular target: Neu5Ac(a2-6)Gal(b1-4)GlcNAc(b1-2)Man(a1-3)[Man(a1-6)]Man(b1-4)GlcNAc(b1-4)GlcNAc
Summary of the method: as §1

[6] = molecular target: Neu5Ac(a2-6)Gal(b1-4)GlcNAc(b1-2)Man(a1-3)[Neu5Ac(a2-6)Gal(b1-4)GlcNAc(b1-2)Man(a1-6)]Man(b1-4)GlcNAc(b1-4)GlcNAc
Summary of the method: as §1

[7] = molecular target: Neu5Ac(a2-6)Gal(b1-4)GlcNAc(b1-2)Man(a1-6)Man(b1-4)GlcNAc(b1-4)GlcNAc
Summary of the method: as §1

[8] = molecular target: Neu5Ac(a2-6)Gal(b1-4)GlcNAc(b1-2)Man(a1-6)[Gal(b1-4)GlcNAc(b1-2)Man(a1-3)]Man(b1-4)GlcNAc(b1-4)GlcNAc
Summary of the method: as §1

[9] = molecular target: Neu5Ac(a2-6)Gal(b1-4)GlcNAc(b1-2)Man(a1-6)[GlcNAc(b1-2)Man(a1-3)]Man(b1-4)GlcNAc(b1-4)GlcNAc
Summary of the method: as §1

[10] = molecular target: Neu5Ac(a2-6)Gal(b1-4)GlcNAc(b1-2)Man(a1-6)[Man(a1-3)]Man(b1-4)GlcNAc(b1-4)GlcNAc
Summary of the method: as §1

[11] = molecular target: Neu5Ac(a2-6)Gal(b1-4)GlcNAc(b1-3)Gal(b1-3)GlcNAc
Summary of the method: as §1

[12] = molecular target: Neu5Ac(a2-6)Gal(b1-4)GlcNAc(b1-3)Gal(b1-4)GlcNAc
Summary of the method: as §1

[13] = molecular target: Neu5Ac(a2-6)Gal(b1-4)GlcNAc(b1-3)Gal(b1-4)GlcNAc(b1-3)Gal(b1-4)GlcNAc
Summary of the method: as §1

[14] = molecular target: Neu5Ac(a2-6)Gal(b1-4)GlcNAc(b1-3)Gal(b1-4)[Fuc(a1-3)]GlcNAc(b1-3)Gal(b1-4)[Fuc(a1-3)]GlcNAc
Summary of the method: as §1

[15] = molecular target: Neu5Ac(a2-6)Gal(b1-4)GlcNAc(b1-3)GalNAc
Summary of the method: as §1

[16] = molecular target: Neu5Ac(a2-6)Gal(b1-4)GlcNAc6S
Summary of the method: as §1

Neu5Ac(a2-6)GalNAc = molecular target: Neu5Ac(a2-6)GalNAc
Summary of the method: as §1

[17] = molecular target: Neu5Ac(a2-6)GalNAc(b1-4)GlcNAc
Summary of the method: as §1

[18] = molecular target: Neu5Ac(a2-6)GlcNAc(b1-4)GlcNAc
Summary of the method: as §1

[19] = molecular target: Neu5Ac(a2-6)GlcNAc(b1-4)GlcNAc(b1-4)GlcNAc
Summary of the method: as §1

Neu5Ac(a2-8)Neu5Ac = molecular target: Neu5Ac(a2-8)Neu5Ac
Summary of the method: as §1

[20] = molecular target: Neu5Ac(a2-8)Neu5Ac(a2-3)Gal(b1-4)Glc
Summary of the method: as §1

[21] = molecular target: Neu5Ac(a2-8)Neu5Ac(a2-3)[GalNAc(b1-4)]Gal(b1-4)Glc
Summary of the method: as §1

[22] = molecular target: Neu5Ac(a2-8)Neu5Ac(a2-8)Neu5Ac
Summary of the method: as §1

[23] = molecular target: Neu5Ac(a2-8)Neu5Ac(a2-8)Neu5Ac(a2-3)Gal(b1-4)Glc
Summary of the method: as §1

[24] = molecular target: Neu5Ac(a2-8)Neu5Ac(a2-8)Neu5Ac(a2-3)[GalNAc(b1-4)]Gal(b1-4)Glc
Summary of the method: as §1

[25] = molecular target: Neu5Ac(a2-8)Neu5Ac(a2-8)Neu5Ac(a2-8)Neu5Ac(a2-3)[GalNAc(b1-4)]Gal(b1-4)Glc
Summary of the method: as §1

[26] = molecular target: Neu5Ac(b2-6)Gal(b1-4)GlcNAc
Summary of the method: as §1

Neu5Ac(b2-6)GalNAc = molecular target: Neu5Ac(b2-6)GalNAc
Summary of the method: as §1

[27] = molecular target: Neu5Ac9Ac(a2-3)Gal(b1-3)GlcNAc
Summary of the method: as §1

[28] = molecular target: Neu5Ac9Ac(a2-3)Gal(b1-4)GlcNAc
Summary of the method: as §1

[29] = molecular target: Neu5Ac9Ac(a2-6)Gal(b1-4)GlcNAc
Summary of the method: as §1

[30] = molecular target: Neu5Gc(a2-3)Gal(b1-3)GlcNAc
Summary of the method: as §1

[31] = molecular target: Neu5Gc(a2-3)Gal(b1-3)[Fuc(a1-4)]GlcNAc
Summary of the method: as §1

Neu5Gc(a2-3)Gal(b1-4)Glc = molecular target: Neu5Gc(a2-3)Gal(b1-4)Glc
Summary of the method: as §1

[32] = molecular target: Neu5Gc(a2-3)Gal(b1-4)GlcNAc
Summary of the method: as §1

[33] = molecular target: Neu5Gc(a2-3)Gal(b1-4)[Fuc(a1-3)]GlcNAc
Summary of the method: as §1

[34] = molecular target: Neu5Gc(a2-6)Gal(b1-4)GlcNAc
Summary of the method: as §1

Neu5Gc(a2-6)GalNAc = molecular target: Neu5Gc(a2-6)GalNAc
Summary of the method: as §1

[35] = molecular target: Neu5Gc(b2-6)Gal(b1-4)GlcNAc
Summary of the method: as §1

B1: exo-alpha-sialidase (Propionibacterium acnes), Q6A7G1 (protein)
chain: GSHMSGRAPAPVAATTQPKLVTGDITSTDQSGTNLFFGKKIVRNARGAIMKVDRTWPAAVPAPLPDVRADSSTRMLLGPVVDLAVNEHPEGVFYRIPALATASNGDLLASYDLRPGSAGDAPNPNSIVQRRSRDNGRTWGPQTVIHAGTPGRRKVGYSDPSYLVDPATGRILNFHVKSYDRGFATSEVGTDPDDRHVLHAEVSTSTDNGHTWTHRDITREITSDPTTRTRFVASGQGIALLHGPHAGRLIAQMTVRNSVGQQAQSIYSDDHGITWHAGNPVGRMMDENKVVELSDGTLMLNSRDAARSGRRKVAYSQDGGLTWGPVKLVDDLIDPTNNAQIIRAYPNARAGSAKARILLFTNARNATERVNGTLSVSCDDGRTWVSHQTYMPGEVGYTTAAVQSDGALGVLWERDGIRYSTIPMGWLNSVCPLAPSGRPTSGKPTSGTSLPPTAT
- glycan array binding signal (z-score) [1]: -0.02
- glycan array binding signal (z-score) [2]: 0.072
- glycan array binding signal (z-score) [3]: -0.014
- glycan array binding signal (z-score) [4]: 0.422
- glycan array binding signal (z-score) [5]: -0.118
- glycan array binding signal (z-score) [6]: 1.24
- glycan array binding signal (z-score) [7]: 0.064
- glycan array binding signal (z-score) [8]: -0.184
- glycan array binding signal (z-score) [9]: -0.006
- glycan array binding signal (z-score) [10]: -0.137
- glycan array binding signal (z-score) [11]: 0.035
- glycan array binding signal (z-score) [12]: 0.359
- glycan array binding signal (z-score) [13]: 0.285
- glycan array binding signal (z-score) [14]: -0.203
- glycan array binding signal (z-score) [15]: 0.27
- glycan array binding signal (z-score) [16]: 0.62
- glycan array binding signal (z-score) (Neu5Ac(a2-6)GalNAc): -0.072
- glycan array binding signal (z-score) [17]: -0.149
- glycan array binding signal (z-score) [18]: 3.52
- glycan array binding signal (z-score) [19]: 1.31
- glycan array binding signal (z-score) (Neu5Ac(a2-8)Neu5Ac): 0.678
- glycan array binding signal (z-score) [20]: 0.71
- glycan array binding signal (z-score) [21]: 0.035
- glycan array binding signal (z-score) [22]: 1.51
- glycan array binding signal (z-score) [23]: 1.32
- glycan array binding signal (z-score) [24]: 0.406
- glycan array binding signal (z-score) [25]: 1.41
- glycan array binding signal (z-score) [26]: -0.348
- glycan array binding signal (z-score) (Neu5Ac(b2-6)GalNAc): -0.351
- glycan array binding signal (z-score) [27]: 0.072
- glycan array binding signal (z-score) [28]: -0.016
- glycan array binding signal (z-score) [29]: -0.195
- glycan array binding signal (z-score) [30]: 0.043
- glycan array binding signal (z-score) [31]: -0.314
- glycan array binding signal (z-score) (Neu5Gc(a2-3)Gal(b1-4)Glc): -0.234
- glycan array binding signal (z-score) [32]: -0.041
- glycan array binding signal (z-score) [33]: -0.196
- glycan array binding signal (z-score) [34]: -0.291
- glycan array binding signal (z-score) (Neu5Gc(a2-6)GalNAc): -0.24
- glycan array binding signal (z-score) [35]: -0.367
